Measurements from PubChem BioAssay AID1508623 (National Center for Advancing Translational Sciences (NCATS), 2021).
The whole screen tested about 48,000 compounds, of which about 450 (0.94%) were called active. Inconclusive results (about 19%) are left out. Calls follow the shape of the dose curve; as a rule, active = well fitted inhibition curve with a large enough effect; inconclusive = small, poorly fitted or top-dose-only effect; inactive = no such curve, though single readings can be large or run the other way. The list shows a part of the results.

Assay: Primary qHTS for Identification of Small Molecule Inhibitors of Huntingtin Promoter Activity; also: nearly all actives have a fitted effect of over 50% in size
Conditions: HEK293 HTT promoter firefly luciferase reporter (activity 0% = vehicle and -100% = no light), 24 h; series mostly up to 57.5 µM; activity change, negative = inhibition: at the top concentration
Procedure, shortened: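 HEK293 Fluc reporter, 2,500 cells/well, 24 h pre-culture; cpds up to 57.5 uM final, 24 h 37 degrees C; Dual-Glo, 10 min RT; normalized vehicle = 0%, zero RLU = -100%.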
Potency is read from the fitted curve at half-maximal effect.

SMILES	activity change, negative = inhibition	Potency
Cc1cccc(NC(=O)Cn2c(=O)n(CCCCCC(=O)NCc3ccc4c(c3)OCO4)c(=O)c3sccc32)c1	inactive: -1.41%	–
COC(=O)c1scc(-c2ccc(C)cc2)c1S(=O)(=O)Nc1cc(C)ccc1OC	inactive: -25.1%	–
COc1ccc(Nc2nc(C)nc(N)c2S(=O)(=O)c2ccccc2)cc1	inactive: -4.61%	–
COc1ccccc1C(=O)Nc1sc(Nc2ccccc2)nc1C(N)=O	inactive: 8.35%	–
CCCNC(=O)C1CCC(Cn2c(=O)c3sccc3n(CC(=O)NCc3cccc(OC)c3OC)c2=O)CC1 (centres undefined)	inactive: -18.7%	–
Cc1ccc(C)c(N2CCN(CCCNC(=O)c3ccc4nc(CCc5ccccc5)oc4c3)CC2)c1	inactive: -9.27%	–
Cc1cc(C)c2c(NC(=O)c3ccccc3)c(C(=O)Nc3ccc(F)cc3)sc2n1	inactive: 3.41%	–
COc1cccc(N2CC(NC(=O)c3cc(Cl)ccc3OC)CC2=O)c1 (centres undefined)	inactive: -26.2%	–
Cc1ccc(C(=O)N/C(=C\c2ccc(Cl)cc2)C(=O)NC2CCCCC2)cc1	inactive: -8.43%	–
COc1ccc(C(=O)c2sc(Nc3ccccc3)nc2N)cc1	inactive: -4.72%	–
CC(=O)c1cccc(NC(=O)CN(c2cc(C)cc(C)c2)S(=O)(=O)c2c(C)noc2C)c1	inactive: -8.63%	–
N#Cc1c(C(F)(F)F)cc(-c2cccs2)nc1SCC(=O)Nc1cccc(Cl)c1	inactive: -3.18%	–
Cc1cc(-n2ccnc(NCCc3ccc(S(N)(=O)=O)cc3)c2=O)ccc1Br	inactive: -47.4%	–
COc1ccc(NC(=O)c2ccco2)cc1NC(=O)c1cc(OC)c(OC)c(OC)c1	inactive: 2.82%	–
O=C(Nc1ccccc1)c1nc[nH]c1C(=O)O	inactive: -14.2%	–
COc1cc(OC)c(N(C)C(=O)c2c(C)oc3ncn(CC(C)C)c(=O)c23)cc1Cl	inactive: 0.244%	–
Cc1c(-c2ccccc2)nc2c(Cl)cccc2c1C(=O)OCC(=O)c1ccc(F)cc1	inactive: -4.71%	–
CCOC(=O)CSc1nc2cc3c(cc2c(=O)n1Cc1ccc(C(=O)NCCc2ccc(OC)c(OC)c2)cc1)OCO3	inactive: -8.12%	–
CCOc1ccccc1C(=O)N(Cc1sccc1C)C1CCS(=O)(=O)C1 (centres undefined)	inactive: -10.9%	–
COc1ccc(-c2cc(C(F)(F)F)nc(SCC(=O)NCCc3ccccc3)n2)cc1	inactive: -9.95%	–
CCCSc1ncc(Cl)c(C(=O)Nc2sc3c(c2C(=O)OC)CCCC3)n1	inactive: -10.6%	–
CC(C)(C)NC(=O)c1oc2ccccc2c1NC(=O)c1ccccc1F	inactive: -15.4%	–
CCC(C)NC(=O)CCC(=O)N1Cc2ccccc2Oc2ncccc21 (centres undefined)	inactive: 3.6%	–
CC1=C(C(=O)N2CCN(c3ccccc3)CC2)C2(CCCCC2)OC1=O	inactive: -14.5%	–
Cc1ccc(-n2nc(C)c(C(=O)O)c2-n2cccc2)cc1	inactive: -9%	–

SMILES	activity change, negative = inhibition	Potency
Cc1ccc(CNC(=O)c2c(C)oc3ncnc(N4CCOCC4)c23)cc1	inactive: -19.2%	–
CCOC(=O)c1c(C)[nH]c(C)c1S(=O)(=O)N(C)CC(=O)Nc1ccc(CC)cc1	inactive: -23.3%	–
O=C(NCc1ccccc1)c1cc2ccc3cccnc3c2[nH]1	inactive: 56.5%	–
CCc1ccc(-n2c(=O)c3c4c(sc3n(CC(=O)c3ccc(Br)cc3)c2=O)CCC4)cc1	inactive: -14.5%	–
Cc1cccc(C)c1NC(=O)Cn1nnc(C(=O)NCc2ccc(F)cc2)c1N	inactive: -4.99%	–
Cc1ccccc1CCNC(=O)C1CCN(S(=O)(=O)c2ccc3c(ccn3C)c2)CC1	inactive: -0.792%	–
O=C(NCC1(c2ccccc2)CCCC1)C(=O)Nc1cccc(Br)c1	inactive: 0.857%	–
Cc1cccc(N2CCN(C(=O)C3CCN(c4ncnc5c4nc4n5CCCCC4)CC3)CC2C)c1 (centres undefined)	–	active: 25.1 µM
Cn1c(=O)c2c(nc(Oc3ccccc3Cl)n2Cc2ccc(C#N)cc2)n(C)c1=O	inactive: -9.45%	–
Cn1nnnc1SCCCNCc1cccc(OCc2ccc(F)cc2)c1	inactive: -26%	–
Cc1oc2c(C)c3oc(=O)c(CC(=O)N4CCCCC4)c(C)c3cc2c1C	inactive: -5%	–
CCc1nn(C(C)C(=O)N2CCN(c3ccccc3)CC2)c(=O)c2cc3occc3n12 (centres undefined)	inactive: -28.7%	–
CCCN(CCC)C(=O)C(Cc1ccccc1)NS(=O)(=O)c1ccc2c(c1)c(=O)n(C)c(=O)n2C (centres undefined)	inactive: -7.4%	–
CSc1ccc(CCNC(=O)c2ccc3c(Cl)c4c(nc3c2)CCCC4)cc1	inactive: -13%	–
CCCSc1ncc(Cl)c(C(=O)Nc2nc3ccc(C)cc3s2)n1	inactive: -17.2%	–
Cc1cc(C)c2c(CC(=O)Nc3ccccc3C(F)(F)F)coc2c1	inactive: -17.1%	–
COc1ccc(S(=O)(=O)c2c(O)c3ccc(C(=O)Nc4ccccc4)cc3[nH]c2=O)cc1	inactive: -5.02%	–
Cc1nn2c(=O)cc(COC(=O)c3cccs3)nc2s1	inactive: 22.8%	–
Cc1cccc(NC(=O)C2CCN(c3nnc(C)c4c(C)n(-c5ccccc5)nc34)CC2)c1C	inactive: 5.27%	–
O=C(NCc1ccccc1)C(=O)NCC(c1ccco1)S(=O)(=O)c1cccs1 (centres undefined)	inactive: -21.1%	–
Cc1ccc(Cl)cc1NC(=O)C1CCCN(c2cnccn2)C1 (centres undefined)	inactive: 10.5%	–
CCc1nn(CC(=O)Nc2cccc(C(C)=O)c2)c(=O)c2cc3sccc3n12	inactive: -19.9%	–
CCOC(=O)N1CCC(Nc2ccc(Cl)cc2N)CC1	inactive: -17%	–
CN(C)c1ccc(C(CNS(=O)(=O)c2ccc(Cl)cc2)N2CCOCC2)cc1 (centres undefined)	inactive: -23.8%	–
CCOC(=O)c1ccccc1NC(=O)Cn1c(=O)n(Cc2nc(C)no2)c(=O)c2ccccc21	inactive: -15.6%	–

SMILES	activity change, negative = inhibition	Potency
CN(c1ccccc1C(=O)O)S(=O)(=O)c1ccc2[nH]c(=O)oc2c1	inactive: 3.16%	–
O=C(CCn1c(=O)c2ccccc2n(Cc2cccc(Cl)c2)c1=O)NCCc1ccccc1	inactive: -1.29%	–
O=C(NCc1ccc(F)cc1)C1(c2cccs2)CCOCC1	inactive: -6.91%	–
Cc1ccc(OCC(=O)Nc2nnc(S(=O)(=O)N3CCCCCC3)s2)cc1	inactive: -7.05%	–
COc1cc(Nc2nc3c(S(=O)(=O)c4ccc(C)c(C)c4)nnn3c3ccsc23)cc(OC)c1	inactive: -17.4%	–
Oc1ccc(NCc2ccccc2OCc2ccc(Cl)cc2)cc1	inactive: 21.2%	–
CCOC(=O)c1c(NC(=O)C2c3ccccc3Oc3ccccc32)sc(C)c1CC	inactive: -19.7%	–
CCn1c(=O)cc(OCC(=O)N(C)c2cc(Cl)ccc2C)c2ccccc21	inactive: -15.3%	–
COC(=O)c1ccccc1NC(=O)N1CCC(N2CCN(Cc3ccc(F)cc3)C(=O)C2=O)CC1	inactive: -0.8%	–
CC(C)(C)C1CCc2nc(NC(=O)Cc3ccccc3)sc2C1 (centres undefined)	inactive: 39.6%	–
CSc1ccc(-c2nc3cccc(C)n3c2Nc2ccc(Cl)cc2)cc1	inactive: 9.85%	–
COc1ccccc1N1C(=O)N(CC(=O)C(C)(C)C)c2ccccc2S1(=O)=O	inactive: -15%	–
CCCCC(CC)COC(=O)c1ccc(N(C)C)cc1 (centres undefined)	inactive: -1.85%	–
COc1cc(O)c(C(=O)c2ccccc2)cc1S(=O)(=O)O	inactive: 3.23%	–
CN(C)CCNC(=O)c1ccc(-c2nn(C)c(=O)c3ccccc23)cc1	inactive: 1.1%	–
Nc1cccc2c1C(=O)N(C1CCC(=O)NC1=O)C2=O (centres undefined)	inactive: 2.99%	–
O=C(O)Cc1ccccc1Oc1ccc(Cl)cc1Cl	inactive: 0.178%	–
COc1cc(OC)cc(OC)c1	inactive: 10.4%	–
CCOc1ccc(CCNC(=O)c2nn(C)c3c2CSc2ccccc2-3)cc1	inactive: -24.8%	–
Cc1cccc(C(=O)NNc2ncnc3c2cnn3-c2ccc(C)cc2C)c1	inactive: -8.94%	–
O=C(O)c1ccc(NC(=O)c2cc(S(=O)(=O)N3CCCCC3)c(Cl)cc2Cl)cc1	inactive: -14.2%	–
COc1cccc(C(=O)Nc2nnc(S(=O)(=O)N3CCCC3)s2)c1	inactive: -6.69%	–
Cc1ccc(Cn2cnc3nc4c(cc3c2=O)CC(C)CC4)cc1 (centres undefined)	inactive: 46.6%	–
CC(C)c1ccc(S(=O)(=O)c2cnc(SCC(=O)Nc3ccc4c(c3)OCCO4)[nH]c2=O)cc1	inactive: -5.69%	–
CCCNC(=O)CN1C(=O)CSc2ccc(S(=O)(=O)N3CCC(C)CC3)cc21	inactive: -19.4%	–

SMILES	activity change, negative = inhibition	Potency
CCC(C)NC(=O)CCCc1nnc2n(CC(C)C)c(=O)c3sccc3n12 (centres undefined)	inactive: -3.08%	–
Cc1ccccc1-c1noc(-c2ccc(NCc3ccco3)c([N+](=O)[O-])c2)n1	inactive: 3.03%	–
COc1ccc2c(Sc3ccc(C)cc3)c(C(=O)NC(C)C)[nH]c2c1	inactive: -28.2%	–
CCOc1ccc(-n2c(=O)c3c(C)c(C)sc3n(CC(=O)NCCc3ccccc3)c2=O)cc1	inactive: -6.8%	–
O=c1oc2ccccc2c(N2CCN(c3ccccc3F)CC2)c1CN1CCCC1	inactive: -12.9%	–
CCOc1ccc(C2CC(=O)c3c([nH]c(C(=O)OCC4CCCCC4)c3C)C2)cc1 (centres undefined)	inactive: -1.03%	–
COCCCNC(=O)c1nn(-c2ccc(C)cc2)nc1CO	inactive: -14.6%	–
COc1cccc(NC(=O)C(Cc2ccccc2)NS(=O)(=O)c2ccc3c(c2)c(=O)n(C)c(=O)n3C)c1 (centres undefined)	inactive: -13.5%	–
CCCc1cc(=O)oc2cc(C)c3c(-c4ccccc4)coc3c12	inactive: -10.8%	–
O=C(CN1C(=O)CSc2ccc(S(=O)(=O)N3CCCC3)cc21)Nc1cccc(Cl)c1	inactive: -20.3%	–
Cc1ccc(NC(=O)CC2Nc3ccccc3NC2=O)cc1C (centres undefined)	inactive: -6.7%	–
Cc1ccccc1C(=O)N(Cc1sccc1C)C1CCS(=O)(=O)C1 (centres undefined)	inactive: -12%	–
COc1ccc(CCNC(=O)c2ccc(Cn3c(=O)c4ccccc4n(CC(=O)C(C)(C)C)c3=O)cc2)cc1OC	inactive: -16.2%	–
COc1cc(NC(=O)CCn2nc(C)c(S(=O)(=O)N3CCCCC3)c2C)cc(OC)c1OC	inactive: -23.6%	–
CC1CCCCN1CCCNC(=O)CN1C(=O)c2cccnc2Oc2ccccc21 (centres undefined)	inactive: -3.15%	–
COc1ccc(Cl)cc1NC(=O)c1c(NCc2cccnc2)sc2c1CCC(C)C2 (centres undefined)	inactive: -28.1%	–
Cc1ccc(Cl)cc1NC(=O)CCCn1c(=O)c2cccn2c2cccnc21	inactive: -0.173%	–
COc1ccccc1NC(=O)C1=C(C)Nc2c(C(=O)Nc3cccc(C)c3)cnn2C1c1ccccc1Cl (centres undefined)	inactive: -9.25%	–
COCCCNC(=O)c1ccc(Cn2c(=O)c3ccccc3n(Cc3c(C)cc(C)cc3C)c2=O)cc1	inactive: -5.91%	–
CCN1CCN(C(c2ccc(SC)cc2)c2c(O)cc(C)n(CCOC)c2=O)CC1 (centres undefined)	inactive: -11.6%	–
O=c1cc(-c2ccc(F)cc2)nc(SCc2nc(-c3ccc(Cl)cc3)no2)[nH]1	inactive: 5.43%	–
CCOC(=O)c1c(C)[nH]c(C)c1S(=O)(=O)NCC(=O)NCc1cccc(C)c1	inactive: -15.3%	–
CCOC(=O)c1ccc(CN(Cc2ccc(Br)cc2)S(=O)(=O)c2cccc(Cl)c2C)cc1	inactive: -18%	–
COc1cc(C(=O)NCC(c2ccc(Cl)cc2)N2CCOCC2)cc(OC)c1OC (centres undefined)	inactive: -3.92%	–
